Source: the supplement of paper PMC3334620
The full ranking holds about 33,000 sequences; the median of “E-score (-0.5 to 0.5)” is about -0.041, and the highest 2% start at about 0.37. Some of the results follow.

molecular target: T1, Ecm22 (UniProt Q05958); experiment: PBM E-score (8-mer binding enrichment) (E-score (-0.5 to 0.5)); higher = stronger / more preferred TF binding; most listed sequences are background and not binding sites; settings: protein concentration: 200 nM; construct: GST-full length
T1 sequence: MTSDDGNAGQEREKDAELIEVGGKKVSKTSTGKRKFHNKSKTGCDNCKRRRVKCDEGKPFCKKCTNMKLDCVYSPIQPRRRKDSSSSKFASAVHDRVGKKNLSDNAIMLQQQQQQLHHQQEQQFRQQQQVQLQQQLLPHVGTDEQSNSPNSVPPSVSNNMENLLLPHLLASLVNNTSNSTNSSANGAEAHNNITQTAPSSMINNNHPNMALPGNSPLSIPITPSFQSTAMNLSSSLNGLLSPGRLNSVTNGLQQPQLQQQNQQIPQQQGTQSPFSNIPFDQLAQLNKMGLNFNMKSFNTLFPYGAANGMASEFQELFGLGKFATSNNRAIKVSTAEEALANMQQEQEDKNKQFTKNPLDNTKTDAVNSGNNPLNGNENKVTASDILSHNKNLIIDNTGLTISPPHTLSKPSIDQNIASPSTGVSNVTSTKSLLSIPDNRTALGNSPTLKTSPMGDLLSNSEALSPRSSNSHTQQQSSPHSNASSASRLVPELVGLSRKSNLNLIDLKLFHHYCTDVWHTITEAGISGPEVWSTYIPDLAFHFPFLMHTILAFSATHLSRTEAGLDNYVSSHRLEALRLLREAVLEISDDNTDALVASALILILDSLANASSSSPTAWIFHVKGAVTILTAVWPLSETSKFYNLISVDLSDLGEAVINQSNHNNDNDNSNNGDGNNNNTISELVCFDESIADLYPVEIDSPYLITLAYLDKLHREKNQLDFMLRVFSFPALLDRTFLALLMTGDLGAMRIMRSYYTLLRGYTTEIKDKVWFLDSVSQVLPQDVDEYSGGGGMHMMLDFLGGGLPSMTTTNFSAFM
Outline: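 PURExpress in vitro transcription/translation supplied GST-tagged yeast transcription factors, either full-length or DNA-binding domain. Applied at about 100-200 nM to universal all-10-mer Agilent arrays double-stranded by primer extension, the bound protein was detected with fluorescent anti-GST. E-scores, modified Wilcoxon-Mann-Whitney statistics, were given by the Universal PBM Analysis Suite to ungapped eight-base words pooled with their reverse complements after masliner normalisation.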

First: GACCGCAC
Second: ACGGTTCC
The “PBM E-score” value of the first is lower: 0.0669 for the first, 0.173 for the second.

Compared with GCAGTCCA, ATTGTGGG is lower in “PBM E-score” value: -0.121 for the first, -0.228 for the second.

First: AGCGCGAT
Second: GCTCCGAC
The “PBM E-score” value of the first is higher: 0.143 for the first, -0.134 for the second.

First: ATTCTGCA
Second: ATCTGGGC
The “PBM E-score” value of the first is higher: 0.0479 for the first, -0.191 for the second.

Going from AGACGTTC to ATGCGCCA, the “PBM E-score” value falls from 0.15 to -0.0844.

Going from CCAAACCG to GTCAAGAC, the “PBM E-score” value falls from 0.00287 to -0.324.

Compared with ACCTAAAG, ACGGAACT is higher in “PBM E-score” value: -0.114 for the first, 0.157 for the second.

Compared with ATCGAAAT, CTGTAATC is lower in “PBM E-score” value: 0.0125 for the first, -0.11 for the second.

Going from AGAGATCA to CAAGTTCG, the “PBM E-score” value rises from -0.195 to 0.0886.

First: ATCGACTA
Second: TATCAGCA
The “PBM E-score” value of the first is higher: -0.00258 for the first, -0.147 for the second.

Going from ACCCAAGG to TAACGGGA, the “PBM E-score” value rises from -0.00135 to 0.0527.

Going from CAAGATGA to CAAGATAA, the “PBM E-score” value rises from -0.209 to -0.0793.

Compared with ATAATGGG, ATATGTAA is lower in “PBM E-score” value: -0.0259 for the first, -0.0509 for the second.

First: CGGACGAC
Second: ACTCCGTA
The “PBM E-score” value of the first is lower: -0.00457 for the first, 0.23 for the second.

Going from AGACCAGC to CCATAAAA, the “PBM E-score” value rises from -0.283 to -0.16.

Going from ACAATATG to ACATCACC, the “PBM E-score” value falls from 0.0505 to -0.0498.

Going from AACGCCTG to CACTTACG, the “PBM E-score” value rises from 0.0753 to 0.291.

Compared with AATATATT, CTTGAACC is lower in “PBM E-score” value: 0.176 for the first, -0.136 for the second.

Compared with TCACAGAA, GACAGCCA is lower in “PBM E-score” value: -0.109 for the first, -0.118 for the second.

First: AACGACGC
Second: ATCCCTTC
The “PBM E-score” value of the first is higher: 0.448 for the first, -0.0152 for the second.

Going from ACTCTCCA to CGCCCAAA, the “PBM E-score” value rises from -0.202 to -0.0672.

Going from CAACCCGC to GCCAGTGA, the “PBM E-score” value falls from -0.0355 to -0.32.

First: CGCTGAAC
Second: AGCCGCCC
The “PBM E-score” value of the first is higher: 0.248 for the first, -3e-05 for the second.

First: CTATACTC
Second: CTCGCGGC
The “PBM E-score” value of the first is lower: 0.0609 for the first, 0.0662 for the second.

Compared with AATTCTTG, AGTCGCAC is higher in “PBM E-score” value: -0.0195 for the first, 0.214 for the second.

Going from AGTGAGTG to CGATTCCC, the “PBM E-score” value rises from -0.143 to -0.0356.

Compared with ACAAAATA, CGTGTAGC is higher in “PBM E-score” value: -0.0601 for the first, 0.0709 for the second.

Going from CCGAACAG to ACTCTAAC, the “PBM E-score” value falls from 0.163 to -0.0941.

Going from GATGAATC to CCTCGAAG, the “PBM E-score” value falls from 0.0346 to -0.0058.

Compared with ATAAAGTC, AGGTTATA is higher in “PBM E-score” value: 0.0605 for the first, 0.15 for the second.

Compared with GGCTTCAA, CCGTAGTA is higher in “PBM E-score” value: -0.106 for the first, 0.0616 for the second.

Going from ATACTGAT to GCTGAACA, the “PBM E-score” value falls from 0.118 to -0.205.

First: CAGCCGGC
Second: CAGGGTAC
The “PBM E-score” value of the first is lower: 0.0272 for the first, 0.0283 for the second.

First: AACCCGAT
Second: AGAAGGCT
The “PBM E-score” value of the first is higher: 0.121 for the first, -0.356 for the second.

Compared with GGGAGTGA, CAGCGCTA is higher in “PBM E-score” value: -0.112 for the first, -0.0704 for the second.

Going from TACGGTAA to CCTGACCC, the “PBM E-score” value falls from 0.339 to -0.117.

Compared with CTAACCAA, GACCCCTC is lower in “PBM E-score” value: 0.0258 for the first, -0.205 for the second.

Compared with GACCACAC, GCGCGCGC is higher in “PBM E-score” value: -0.0613 for the first, 0.104 for the second.

First: GGCCCTAC
Second: CCTTCTCA
The “PBM E-score” value of the first is lower: -0.244 for the first, -0.057 for the second.

Compared with CTTTGTGA, CGGAAGTC is higher in “PBM E-score” value: -0.18 for the first, 0.12 for the second.

Going from AGCTTTGA to AAAGAGTA, the “PBM E-score” value falls from -0.14 to -0.21.

Compared with ACCCGGCC, CCTGAAAG is higher in “PBM E-score” value: -0.142 for the first, -0.132 for the second.

First: AGGCAACG
Second: GATTGGTA
The “PBM E-score” value of the first is higher: 0.166 for the first, -0.0236 for the second.

Compared with GTATATAC, AAACTCCG is lower in “PBM E-score” value: 0.334 for the first, -0.112 for the second.

Compared with ACCTTTAA, TCGACGCA is lower in “PBM E-score” value: 0.113 for the first, -0.00701 for the second.

First: CATTAAGC
Second: CTGTCATC
The “PBM E-score” value of the first is higher: 0.0107 for the first, -0.195 for the second.

Compared with GTCATGAA, AATGTGAT is higher in “PBM E-score” value: -0.111 for the first, -0.00834 for the second.

Going from CTCGTCCA to AAGATCGA, the “PBM E-score” value rises from -0.0634 to 0.0419.

Going from AGGGTGTA to ACGGTCGC, the “PBM E-score” value rises from -0.0788 to 0.149.

Compared with AGCGCACC, GATTCACC is lower in “PBM E-score” value: 0.00342 for the first, -0.0811 for the second.

Going from GTCGACCA to AGGCTACT, the “PBM E-score” value rises from -0.054 to -0.0431.

First: AAATGAGG
Second: GCCTCGCC
The “PBM E-score” value of the first is lower: -0.244 for the first, 0.101 for the second.

Going from ATGTCGAC to AATAGCGC, the “PBM E-score” value falls from 0.124 to 0.00167.

First: AAAGGACC
Second: CTCTGAGC
The “PBM E-score” value of the first is lower: -0.117 for the first, -0.0896 for the second.

First: CTGGCCCC
Second: CTACTGGC
The “PBM E-score” value of the first is higher: -0.0756 for the first, -0.206 for the second.

First: GGTCCACA
Second: AACACTCG
The “PBM E-score” value of the first is lower: -0.0429 for the first, 0.258 for the second.

Compared with ATGACCAA, CTCCAGCA is higher in “PBM E-score” value: -0.00075 for the first, 0.0964 for the second.

Compared with CCGAACAC, AAGTGTTC is higher in “PBM E-score” value: -0.0402 for the first, 0.0293 for the second.

Compared with CGGGAACC, AAGTATGA is higher in “PBM E-score” value: 0.0199 for the first, 0.0516 for the second.

Going from GTAGTCAA to AAGAGAAT, the “PBM E-score” value falls from 0.0164 to -0.154.

Going from ATTGCTAC to TCGTAAGA, the “PBM E-score” value rises from 0.156 to 0.407.

Going from GTGTAACA to GCCCCTAC, the “PBM E-score” value rises from -0.108 to -0.0826.

Going from AGTTAAAA to GGATAGCC, the “PBM E-score” value rises from 0.00218 to 0.145.

First: ACAAGGTA
Second: CCCACTCA
The “PBM E-score” value of the first is higher: 0.0276 for the first, -0.0867 for the second.

First: CCTAGTTA
Second: CATCGTAG
The “PBM E-score” value of the first is lower: -0.135 for the first, 0.261 for the second.

First: ACGCTTAC
Second: GGACCAAA
The “PBM E-score” value of the first is higher: 0.0738 for the first, 0.0334 for the second.

Going from GGCCATAC to ACGAGTCC, the “PBM E-score” value rises from 0.158 to 0.341.

Going from ATTGTAGC to CATATCAC, the “PBM E-score” value rises from -0.054 to 0.0678.

Going from AGGTATCA to ATCTATCC, the “PBM E-score” value rises from -0.259 to -0.0194.

Going from ACGTTACG to TATCCCAA, the “PBM E-score” value falls from 0.319 to -0.11.

First: AGACTTAG
Second: GTAACCCA
The “PBM E-score” value of the first is lower: -0.316 for the first, 0.121 for the second.

Going from ACGACACG to ACTAAGAA, the “PBM E-score” value falls from 0.327 to -0.0756.

Compared with AGGAACAA, TACATTGA is lower in “PBM E-score” value: -0.0222 for the first, -0.0816 for the second.

Compared with AGTTCGGC, TATGAGGA is lower in “PBM E-score” value: -0.00793 for the first, -0.127 for the second.

First: CTTTGGAC
Second: CAAGCCTA
The “PBM E-score” value of the first is higher: -0.0902 for the first, -0.126 for the second.

Going from ATTCTCGG to GCACAAGA, the “PBM E-score” value falls from 0.245 to 0.00568.

Compared with TCCCGAGA, CAAGGTCC is lower in “PBM E-score” value: 0.125 for the first, -0.0239 for the second.

Compared with AGCTTTCG, ACCAACGA is higher in “PBM E-score” value: 0.0661 for the first, 0.0849 for the second.

Going from GTCACCAC to GCGGGCTA, the “PBM E-score” value falls from -0.12 to -0.145.

First: ACGAGCAT
Second: CCGTACTA
The “PBM E-score” value of the first is higher: 0.365 for the first, 0.341 for the second.

First: GATTACTA
Second: AAACCCCG
The “PBM E-score” value of the first is lower: -0.0288 for the first, -0.0114 for the second.

First: CACTAGCG
Second: CCAGGGTA
The “PBM E-score” value of the first is lower: -0.162 for the first, -0.0774 for the second.

Going from TGACTTAA to ACACAAGC, the “PBM E-score” value rises from -0.0427 to -0.041.

First: ACACTACT
Second: CGAATCCC
The “PBM E-score” value of the first is lower: 0.0669 for the first, 0.15 for the second.

First: AAATTCAA
Second: CATCCTAA
The “PBM E-score” value of the first is higher: 0.0425 for the first, 0.00158 for the second.

Going from CATGACAA to GAGAATAC, the “PBM E-score” value rises from -0.116 to 0.206.
